Inconclusive means that the source gave no clear call. Such entries were picked first, then a sample of the others. A potency beside an inconclusive call is a rough fit, not a confirmed value. Active and inactive are the calls of the source. The call rests on the fitted dose curve; in most records, active means well fitted inhibition curve with a large enough effect; inconclusive means small, poorly fitted or top-dose-only effect; inactive means no such curve, though single readings can be large or run the other way.
Assay: Confirmatory qHTS for Identification of Small Molecule Inhibitors of Huntingtin Promoter Activity; further: nearly all actives have a fitted effect of over 65% in size;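 on activity change, negative = inhibition: 0% = vehicle control and -100% = zero luminescence signal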
Conditions: HEK293 HTT promoter firefly luciferase reporter, 24 h; series mostly up to 57.5 µM; activity change, negative = inhibition: at the top concentration
Outline: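 2,500 luciferase reporter HEK293 cells/well; 24 h culture; cpds up to 57.5 uM final, PTC124 50 uM ctrl; 24 h, 37C; Dual-Glo FLuc reagent, 10 min RT; lum. Norm.: vehicle 0%, zero RLU -100%.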
Potency means the concentration at half of the fitted maximal effect; tags describe the fitted curve by direction and shape.

Compound	Potency	activity change, negative = inhibition
COc1ccc(OC2CCN(S(=O)(=O)c3ccc(OC)cc3)CC2)cc1	inconclusive: 16.9 µM [inhibitor, partial curve]	–
CCOc1ccc(S(=O)(=O)NCCc2sc3nc(-c4ccc(F)cc4)nn3c2C)cc1	inconclusive: 12 µM [inhibitor, partial curve]	–
CCCOc1cccc(NC(=O)c2c(-c3ccccc3Cl)noc2C)c1	inconclusive: 15.1 µM [inhibitor, partial curve, poor fit]	–
CCN1c2ccccc2-c2nc(SCC(=O)Nc3cc(F)ccc3F)ncc2S1(=O)=O	inconclusive: 26.9 µM [inhibitor, partial curve]	–
Cc1ccc(NC(=O)c2c(Nc3ccccc3C)sc(C(=O)c3ccccc3)c2N)cc1	inconclusive: 2.39 µM [inhibitor, full curve]	–
O=C(NCC(c1ccccc1)c1ccccc1)c1nn(-c2ccccc2F)nc1CO	inconclusive: 1.9 µM [inhibitor, full curve]	–
CCOc1ccc(S(=O)(=O)N(C(C)=O)c2ccc3oc(C)c(C(=O)OC)c3c2)cc1	active: 4.78 µM	–
CCOC(=O)c1cc2c(=O)n3ccccc3nc2n(Cc2ccco2)c1=NC(=O)c1cc(C)cc(C)c1	inconclusive: 12 µM [inhibitor, partial curve]	–
Cc1nnc(N2CCC(C(=O)NCCc3ccccc3Cl)CC2)c2nn(-c3ccccc3)c(C)c12	inconclusive: 33.8 µM [inhibitor, partial curve]	–
O=C1CCCc2cc(S(=O)(=O)NCC3CCC(C(=O)Nc4ccccc4F)CC3)ccc2N1 (stereo not given)	inconclusive: 30.1 µM [inhibitor, single point]	–
CC1=C(C(=O)OCc2ccc(C)cc2)C(c2ccccc2Cl)CC(=O)N1 (stereo not given)	inconclusive: 26.9 µM [inhibitor, single point]	–
Cc1cccc(-n2nc(C)c(C(=O)N3CCN(c4ccccc4)CC3)c2-n2cccc2)c1	inconclusive: 19 µM [inhibitor, single point]	–
Cc1ccc(CSC2=Nc3ccccc3C3=NC(CC(=O)NC4CCCCC4)C(=O)N23)cc1 (stereo not given)	inconclusive: 37.9 µM [inhibitor, single point]	–
CCCN(C(=O)COc1cc(=O)n(CC)c2ccccc12)c1ccc(C(C)C)cc1	inconclusive: 37.9 µM [inhibitor, single point]	–
COc1ccc(NC(=O)Cn2nc(-c3ccncc3)ccc2=O)cc1Cl	–	inactive: 0.17%
Cc1ccc(N(C)C(=O)Cn2cnc3onc(-c4ccc(F)cc4)c3c2=O)cc1C	inconclusive: 21.3 µM [inhibitor, single point]	–
COc1ccc(CNS(=O)(=O)c2ccc(N3CCCCS3(=O)=O)cc2)cc1	inconclusive: 6.75 µM [inhibitor, full curve]	–
CCN(CCCNC(=O)CSc1cc(=O)n(CC)c2ccccc12)c1ccccc1	–	inactive: -20.2%
O=C(NCCc1nc2ccccc2n1CCCOc1ccc(Cl)cc1)C1CCCCC1	inconclusive: 30.1 µM [inhibitor, single point]	–
COc1ccc(C2C=C(c3ccc(Br)cc3)Nc3nnnn32)c(OC)c1 (stereo not given)	–	inactive: -7.4%

Compound	Potency	activity change, negative = inhibition
Cc1ccc(-c2c(C)n3c4c(=O)n(C)c(=O)n(C)c4nc3n2CCO)cc1	inconclusive: 4.78 µM [inhibitor, partial curve, poor fit]	–
Cc1ccc(C2=CC(c3ccc(Cl)cc3)n3nc(-c4ccc(C)cc4)nc3N2)cc1 (stereo not given)	–	inactive: -24.2%
CC(C)[C@H](C(=O)Nc1ccc(C(=O)NO)cc1)c1ccccc1	–	inactive: 20.6%
COc1ccc(N2CCN(CCCNC(=O)c3c(C)nn(-c4ccc(F)cc4)c3-n3cccc3)CC2)cc1	inconclusive: 21.3 µM [inhibitor, partial curve]	–
Cc1oc(-c2ccc(C(=O)NCCCOC(C)C)cc2)nc1CS(=O)(=O)c1ccccc1	inconclusive: 12 µM [inhibitor, partial curve]	–
CC1CCCCN1C(=O)CSc1nc2ccccc2nc1Cc1ccc(Cl)cc1 (stereo not given)	inconclusive: 26.9 µM [inhibitor, single point]	–
CCOc1ccc(NS(=O)(=O)c2ccc(-c3cc(C)no3)s2)cc1	inconclusive: 21.3 µM [inhibitor, partial curve]	–
CCc1cccc(NS(=O)(=O)c2ccc3c(c2)CC(C)N3C(=O)C2CC2)c1 (stereo not given)	inconclusive: 6.75 µM [inhibitor, partial curve]	–
Cc1ccccc1Nc1sc(C(=O)c2ccc(F)cc2)c(N)c1C(=O)NCCc1ccccc1	inconclusive: 19 µM [inhibitor, single point]	–
O=C(Nc1ccc(Br)cc1)c1cc(S(=O)(=O)NC2CCCC2)ccc1F	inconclusive: 30.1 µM [inhibitor, single point]	–
COc1cc(NC(=O)c2cc3c(s2)-c2ccccc2OC3)cc(OC)c1OC	inconclusive: 33.8 µM [inhibitor, single point]	–
CC(CNC(=O)c1ccc(CSc2nc3ccncc3n2Cc2ccc(F)cc2)cc1)c1ccccc1 (stereo not given)	inconclusive: 21.3 µM [inhibitor, single point]	–
COc1cc(CCC(=O)NCc2ccc3c(c2)CCN3C(=O)c2ccccc2)cc(OC)c1OC	inconclusive: 23.9 µM [inhibitor, partial curve, poor fit]	–
O=C(Nc1cccc(Cl)c1)C1CCCN(c2nn3cc(-c4ccc(F)cc4)nc3s2)C1 (stereo not given)	inconclusive: 26.9 µM [inhibitor, partial curve]	–
O=C(C1CCC1)N1CCCc2cc(S(=O)(=O)N3CCN(c4ccccc4)CC3)ccc21	inconclusive: 23.9 µM [inhibitor, single point]	–
COc1cc2nc(N3CCCN(C)CC3)nc(NC3CCN(Cc4ccccc4)CC3)c2cc1OC	active: 26.9 µM	–
COc1ccc(C(=O)Nc2cccc(-c3cn4ccsc4n3)c2)c(OC)c1	–	inactive: 10.7%
Cc1ccc(NC(=O)Cn2cc(S(=O)(=O)Cc3ccccc3)c3ccccc32)cc1C	inconclusive: 21.3 µM [inhibitor, partial curve]	–
COc1cccc(CNC(=O)Cn2c(=O)oc3cc(S(=O)(=O)N4CCC(C)CC4)ccc32)c1	inconclusive: 9.53 µM [inhibitor, partial curve]	–
COc1ccc(CNC(=O)c2c(Nc3ccccc3C)sc(C(=O)c3ccccc3)c2N)cc1	inconclusive: 4.78 µM [inhibitor, partial curve]	–

Source: PubChem BioAssay AID1508621 (National Center for Advancing Translational Sciences (NCATS), 2021)
